# PubChem BioAssay AID2107 (National Center for Advancing Translational Sciences (NCATS), 2009)
# Among all 240,000 compounds or so, about 20 (0.008%) were called active. Inconclusive means that the source gave no clear call. Such entries were picked first, then a sample of the others. Calls come from the whole dose curve; as a rule, active = well fitted inhibition curve with a large enough effect; inconclusive = small, poorly fitted or top-dose-only effect, or effect the other way; inactive = flat fitted curve, though single readings scatter. No potency is given beside an inconclusive call; the fits are too rough.
# Biological target: Alpha-galactosidase A (Homo sapiens) (UniProt P06280)
# Assay: qHTS Assay for Inhibitors and Activators of Human alpha-Galactosidase From Spleen Homogenate;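 for activity change, negative = inhibition: 0% = enzyme with vehicle and -100% = no enzyme basal signal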
# Details: 4MU-alpha-Gal fluorescence, 40 min; activity change, negative = inhibition: at 80 µM (top of the series)
# Method in brief: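 qHTS titration in buffer at pH 5.0. Alpha-galactosidase activity in spleen homogenate was measured via 4-methylumbelliferone release from 1 mM fluorogenic substrate after 40 min at 37C and a pH 10 stop. AC50 came from Hill fits of control-normalized data.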
# Potency is the fitted concentration of half-maximal effect; tags give direction and shape of the fitted curve.
# Chain of UniProt P06280 (P06280 whole entry, looked up): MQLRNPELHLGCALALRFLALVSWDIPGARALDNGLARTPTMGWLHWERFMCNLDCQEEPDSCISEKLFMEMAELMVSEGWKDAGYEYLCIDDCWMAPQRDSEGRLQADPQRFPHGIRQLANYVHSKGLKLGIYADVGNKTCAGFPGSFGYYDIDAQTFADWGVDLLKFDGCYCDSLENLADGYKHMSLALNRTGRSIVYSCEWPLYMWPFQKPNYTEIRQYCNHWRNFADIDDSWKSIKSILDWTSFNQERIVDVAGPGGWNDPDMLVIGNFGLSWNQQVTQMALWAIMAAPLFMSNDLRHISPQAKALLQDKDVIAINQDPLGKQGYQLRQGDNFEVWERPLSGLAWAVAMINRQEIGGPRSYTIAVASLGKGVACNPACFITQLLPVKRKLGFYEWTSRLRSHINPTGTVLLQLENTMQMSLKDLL
Structure (SMILES),"activity change, negative = inhibition",Potency
CCCc1cc2c(n1CCc1ccc(Cl)cc1)C(C)C1CN(C(=O)c3ccccc3)C(C)(C(=O)OC)C21 (stereo not given),inactive: 5.94%,–
CNc1ccc(Cl)cc1C(N)=O,–,"inconclusive [activator, partial curve]"
CNC(=O)c1cc2ccc(OC)cc2oc1=O,–,"inconclusive [activator, partial curve]"
COCCCNC(=O)CCCn1c(=O)[nH]c2ccccc2c1=O,–,"inconclusive [activator, full curve, poor fit]"
C=CCn1c(N)c(C(=O)OCC(C)C)c2nc3ccccc3nc21,–,"inconclusive [activator, partial curve]"
CC(=O)c1sc(NC(=O)c2ccccc2)nc1-c1ccccc1,inactive: -6.71%,–
O=C1ON=C(c2ccc(Cl)cc2)/C1=C/c1ccc(O)cc1,–,"inconclusive [inhibitor, partial curve, poor fit]"
Cc1nn(C(C)c2n[nH]c(=S)n2-c2cccc(Cl)c2)c(C)c1[N+](=O)[O-] (stereo not given),–,"inconclusive [inhibitor, single point]"
Cc1cc(/C=c2\sc3nc4ccccc4n3c2=O)c(C)n1-c1ccc(C(=O)O)cc1,inactive: 5.95%,–
CCC(C)(C)n1nnnc1C(c1ccncc1)N1CCN(c2cccc(OC)c2)CC1 (stereo not given),–,"inconclusive [inhibitor, partial curve]"
CCCCN(CC)CCCNC(=O)c1cc2cc3ccc(OC)cc3nc2o1,–,"inconclusive [activator, partial curve]"
N=C1/C(=C\c2ccc(SCc3ccccc3)o2)C(=O)N=C2SC=NN12,inactive: -0.995%,–
CC(OC(=O)c1ccccc1NCc1ccco1)C(=O)Nc1ncc(Cl)cc1Cl (stereo not given),–,"inconclusive [activator, partial curve]"
COC(=O)C(O)(CC(=O)Nc1ccccc1OC)C(F)(F)F (stereo not given),–,"inconclusive [inhibitor, single point]"
CCCCOC(=O)c1sc2nc(C)cc(C)c2c1N,–,"inconclusive [activator, single point]"
CCC(C)n1c(=S)[nH]c2c(sc3ccc([N+](=O)[O-])cc32)c1=O (stereo not given),inactive: -7.82%,–
CCCn1c(C(C)NC(=O)c2ccccc2)n[nH]c1=S (stereo not given),–,"inconclusive [inhibitor, full curve, poor fit]"
COC(=O)c1ccc2c(=O)n(CCN3CCOCC3)c(SCC(=O)C(C)(C)C)nc2c1,inactive: 0.39%,–
CC(=O)/C(N=Nc1ccc(C(=O)O)cc1[N+](=O)[O-])=C(\C)O,–,"inconclusive [inhibitor, single point]"
CCCN1CCN(C(c2cc3cc4c(cc3[nH]c2=O)OCO4)c2nnnn2C(C)(C)C)CC1 (stereo not given),–,"inconclusive [activator, single point]"
COc1ccc(Cl)cc1NC(=O)CN1CCc2ccccc21,inactive: 3.88%,–
Cc1cc(C(F)F)n2nc(C(=O)Nc3sc4c(c3C#N)CCC(C)C4)nc2n1 (stereo not given),inactive: 2.88%,–
N#C/C(=C/c1ccc(Cl)cc1)NC(=O)c1ccccc1,–,"inconclusive [inhibitor, single point]"

Structure (SMILES),"activity change, negative = inhibition",Potency
CCc1c(C)nc(N)c(C#N)c1-c1ccccc1,inactive: 0.0044%,–
CN(C)Cc1c(O)ccc2c3c(c(=O)oc12)CCCCC3,–,"inconclusive [activator, partial curve]"
CN1CC(C(=O)O)Cc2c1ccc1ccccc21 (stereo not given),–,"inconclusive [activator, single point]"
CC(C)(CN1CCN(c2ccccc2)CC1)NS(=O)(=O)c1ccccc1,–,"inconclusive [inhibitor, single point]"
c1ccc(-c2ccc(-c3nccc4ccccc34)[nH]2)cc1,–,"inconclusive [activator, single point]"
Nc1cccc(-c2nc3ccc(N)cc3s2)c1,–,"inconclusive [activator, single point]"
O=c1oc2c(CN3CCOCC3)c(O)ccc2c2c1CCCC2,–,"inconclusive [activator, partial curve]"
CS(=O)(=O)n1nc(-c2ccc(Cl)cc2)nc1N,inactive: -1.26%,–
O=c1cc(-c2ccccc2)nc2c(-c3ccccc3)c(C(F)(F)F)[nH]n12,–,"inconclusive [activator, partial curve, poor fit]"
Cc1ccc(Nc2ccc(S(=O)(=O)N3CCOCC3)cc2[N+](=O)[O-])c(C)c1,inactive: -4.02%,–
CCOC(=O)c1[nH]c2ccc(OC)cc2c1NC(=O)C(C)N1CCC2(CC1)OCCO2 (stereo not given),–,"inconclusive [activator, single point]"
O=C(Nc1ccccc1)c1cccnc1NCCc1ccccc1,–,"inconclusive [activator, single point]"
COc1cccc([C@@H]2Oc3ccc(OC)cc3/C(=N/O[C@@H](C)c3cc(-c4c(C)cc(C)cc4C)no3)[C@@H]2O)c1,inactive: 8.67% [at 17.5 µM],–
Cc1ccc(C2NC(=O)c3c(sc4c3CCN(C)C4)N2)s1 (stereo not given),–,"inconclusive [activator, single point]"
CCCC(=O)NCCc1c2n(c3ccc(OC)cc13)CCCc1ccccc1-2,inactive: 9.92%,–
Cc1nc2c(nnn2Cc2ccccc2)c(=O)[nH]1,inactive: 4.6%,–
O=C(Nc1nnc(-c2ccccc2)o1)c1cc(-c2cccs2)nc2ccccc12,–,"inconclusive [activator, single point]"
Cc1cc(NC(=O)CN2CCOCC2)n(-c2ccccc2)n1,inactive: 4.57%,–
CN(C)C1CCN(CCCOc2ccc(-c3ccc(C#N)cc3)cc2)C1 (stereo not given),–,inactive
CC(C)c1[nH]nc2c1C(c1cccc(OC(=O)N3CCOCC3)c1)C(C#N)=C(N)O2 (stereo not given),–,"inconclusive [inhibitor, partial curve, poor fit]"
Nc1nc(N2CCN(C(=O)c3ccco3)CC2)nc2ccccc12,–,"inconclusive [activator, partial curve]"
COC(=O)[C@@]1(Cc2ccc(OC)cc2)[C@H]2c3cc(C(=O)N(C)C)n(Cc4ccc(OC)c(OC)c4)c3C[C@H]2CN1C(=O)c1ccccc1,inactive: -2.66%,–
